The campaign covered roughly 310,000 compounds. About 14,000 (4.5%) showed an effect of 50% or more. Effects have a minus sign here. The list shows a part of the results.
Biological target: human ether-à-go-go-related gene (hERG) potassium channel (human, UniProt Q12809)
Test: primary screen, population patch clamp on CHO cells stably expressing hERG
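Note: peak tail current of the secondary pulse compared with the same well before compound.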

human ether-à-go-go-related gene (hERG) potassium channel, sequence (Q12809 whole entry, looked up): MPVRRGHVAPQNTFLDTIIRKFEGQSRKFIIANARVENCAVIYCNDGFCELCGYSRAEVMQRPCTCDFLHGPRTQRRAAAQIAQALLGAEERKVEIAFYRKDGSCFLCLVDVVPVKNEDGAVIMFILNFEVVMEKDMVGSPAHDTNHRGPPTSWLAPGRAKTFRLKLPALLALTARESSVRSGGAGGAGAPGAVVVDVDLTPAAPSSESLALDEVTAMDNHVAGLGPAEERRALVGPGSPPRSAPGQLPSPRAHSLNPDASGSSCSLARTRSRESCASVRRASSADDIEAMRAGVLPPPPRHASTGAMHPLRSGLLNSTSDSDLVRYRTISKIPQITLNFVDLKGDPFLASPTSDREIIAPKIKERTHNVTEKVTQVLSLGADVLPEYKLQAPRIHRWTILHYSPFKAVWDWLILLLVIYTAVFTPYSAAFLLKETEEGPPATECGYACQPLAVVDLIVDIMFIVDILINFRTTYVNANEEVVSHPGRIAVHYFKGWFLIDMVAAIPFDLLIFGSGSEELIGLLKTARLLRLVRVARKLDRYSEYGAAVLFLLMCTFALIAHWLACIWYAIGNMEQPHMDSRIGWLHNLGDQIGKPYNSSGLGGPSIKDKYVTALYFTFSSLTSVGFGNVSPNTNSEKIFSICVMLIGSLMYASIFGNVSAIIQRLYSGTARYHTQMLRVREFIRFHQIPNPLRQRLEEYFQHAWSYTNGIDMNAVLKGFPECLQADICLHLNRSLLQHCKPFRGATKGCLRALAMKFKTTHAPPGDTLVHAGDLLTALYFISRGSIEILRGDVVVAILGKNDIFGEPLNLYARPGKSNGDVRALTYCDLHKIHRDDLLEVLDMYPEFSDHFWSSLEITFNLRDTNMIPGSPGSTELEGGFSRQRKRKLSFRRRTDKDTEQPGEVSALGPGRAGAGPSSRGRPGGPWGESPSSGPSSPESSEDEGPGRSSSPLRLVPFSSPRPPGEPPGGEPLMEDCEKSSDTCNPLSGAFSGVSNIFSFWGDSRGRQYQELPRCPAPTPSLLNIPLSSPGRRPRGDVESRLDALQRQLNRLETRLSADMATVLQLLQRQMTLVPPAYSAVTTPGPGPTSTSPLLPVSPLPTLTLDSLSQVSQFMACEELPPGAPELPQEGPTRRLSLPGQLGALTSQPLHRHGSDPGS

SMILES	hERG current change (%, negative = inhibition) at 10uM [%]
C[n+]1ccccc1/C=C/c1ccc([N+](=O)[O-])cc1.[I-]	-2.7
CCO[C@H]1OC(C(=O)NCc2nc3ccccc3[nH]2)=C[C@@H](c2ccccc2)[C@@H]1CCCO	-9.74
CCOc1ccc(Cn2c(=O)sc3ccccc32)cc1OC	-12.7
COc1ccc(CNC(=O)CN2C(=O)CSc3ccc(S(=O)(=O)N4CCOCC4)cc32)cc1	-37.9
CC(C)c1ccc(CNc2cc(N3CCCC3)ccc2[N+](=O)[O-])cc1	13.8
CS(=O)(=O)N1CCN(c2ccc([N+](=O)[O-])cc2F)CC1	-12.7
CC(=O)Nc1cccc(C(=O)OCN2C(=O)c3ccccc3C2=O)c1	4.69
N#CC1=C(N)Oc2n[nH]c(-c3cccs3)c2C1c1cccs1 (stereo not drawn)	4.91
CCOc1ccc2[nH]c3c(=O)n(CCC4=CCCCC4)cnc3c2c1	4.95
O=C(c1ccco1)N1CCCC(N2CCN(c3ccccc3F)CC2)C1 (stereo not drawn)	-21.1
O=C1c2ccccc2C(=O)c2c(Nc3ccc(CCO)cc3)ccc(O)c21	18
O=C(c1ccoc1)N1CCCC(N2CCN(c3cccc(Cl)c3)CC2)C1 (stereo not drawn)	-41.3
CCn1cc(C(=O)NC2CCCCCC2)c2cc(OC)c(OC)cc2c1=O	-3.41
CCn1c(C)nnc1SCC(=O)Nc1ccc(N2CCOCC2)cc1	-6.43
Cc1cc(C=C2C(=O)c3ccccc3C2=O)c(C)n1-c1ccccc1	7.13
CN1CCCN(C(=O)CNC(=O)Cc2ccccc2)CC1	6.11
N#Cc1c(N)nc2c(c1-c1ccncc1)CCCC2	-26.5
Cc1sc2ncn(CC(=O)NCCCC(=O)N3CCCCC3)c(=O)c2c1C	1.08
COc1ccc(NC(=O)c2ccc(CNc3c(N4CCCC4)c(=O)c3=O)cc2)cc1Cl	7
CC(=O)N/C(=C/c1ccc(OS(=O)(=O)c2ccc(C)cc2)cc1)C(=O)Nc1ccc(C(=O)O)cc1	12.7
COc1ccc(OC)c(NC(=O)c2ccc(NS(=O)(=O)c3c(C)noc3C)cc2)c1	-11.2

SMILES	hERG current change (%, negative = inhibition) at 10uM [%]
CCC1(C)Cc2nc3sc(C(=O)O)c(N)c3cc2CO1 (stereo not drawn)	5.56
CCOC(=O)c1cnc2c(Cl)cc(Cl)cc2c1NCCOCCO	-18.2
O=C(CSc1nnnn1-c1ccc(F)cc1)NCc1cccs1	-0.104
CC(=O)N1CCN(c2ccc(NC(=O)c3ccc(OCc4ccccc4)cc3)cc2)CC1	16.7
O=c1[nH]c(=S)n(-c2ccccc2)c(O)c1C=NCCN1CCNCC1	20
COc1ccc(Cl)cc1NC(=O)Cn1c(C)csc1=O	0.644
COc1cccc(/C=N/n2c(=S)n(C)c3cc(C)c(C)cc32)c1OC	3.15
CSC[C@H](NC(=O)COc1cc2c(c3oc(=O)cc(C)c13)CCC(C)(C)O2)C(=O)O	13.1
Cc1ccc(C(C)C)c(OCCN2C(=O)NC(C)(C)C2=O)c1	-2.69
CCOC(=O)C1CCN(C(=O)/C=C/c2cccs2)CC1	23
NC(=O)N/N=C/c1c(F)cccc1F	7.11
O=C(Cn1c(C(=O)N2CCN(C3CCCC3)CC2)cc2sccc21)c1ccccc1	-76.1
Cc1ccc(NC(=O)N2CCCC2C(=O)NCC2CCCO2)cc1 (stereo not drawn)	28.4
CCC(Sc1nc(C)cc(C)n1)C(=O)Nc1nccs1 (stereo not drawn)	14.9
O=C(c1ccc(Br)o1)N(Cc1ccccc1)c1ccccn1	-19.3
O=C(CN(Cc1ccc(F)cc1)C(=O)CCC(=O)Nc1nccs1)NCc1ccccc1	-35.6
COc1ccc(NC(=O)C2CCCN2C(=O)NC2CCCCC2)c(OC)c1 (stereo not drawn)	5.13
O=C(COc1cc(Cl)c(Cl)cc1Cl)Nc1ccc([N+](=O)[O-])cc1Cl	11.9
CCc1noc(C)c1C(=O)N1CCCC(C(=O)c2cc(F)ccc2F)C1 (stereo not drawn)	-41.2
CN(C)S(=O)(=O)n1cnc([C@@H]2[C@H]3C(=O)OC[C@@H]3C[C@@]23N=CN(Cc2ccccc2)C3=O)c1	1.5
COc1ccc(C(=O)NCc2nnc(SCC(=O)N3CCCCC3)o2)cc1OC	3.19

— paper PMC4336329 (PLoS ONE, 2015)
